C[C@@H]([C@H](N)C(=O)N[C@H](C(=O)O)[C@H]1O[C@@H](n2ccc(=O)[nH]c2=O)[C@H](O)[C@@H]1O)[C@H](O)c1ccc(O)cn1 [nikZ, Nikkomycin Z]
Stability in drinking water (drinking water): stable
Degradation of refrigerated solution of nikZ (refrigerated solution used for treating the mice, time period of months): minimal degradation

— patent US20220331391A1 (priority 2021, published 2022)
